# “And” between values parts separate entries of the source, which are not always exact repeats. Identical values can stand only once. The campaign covered roughly 270,000 compounds. About 5,800 (2.1%) were called active. This list was built around the results that the source calls inconclusive (neither active nor inactive); the mix of calls is not that of the screen. The call rests on the fitted dose curve; in most records, active means well fitted inhibition curve with a large enough effect; inconclusive means small, poorly fitted or top-dose-only effect; inactive means flat fitted curve, though single readings scatter. Potencies of inconclusive entries are doubtful fits and often do not repeat.
# Target: Microtubule-associated protein tau (Homo sapiens) (UniProt P10636)
# UniProt P10636, sequence (P10636 whole entry, looked up): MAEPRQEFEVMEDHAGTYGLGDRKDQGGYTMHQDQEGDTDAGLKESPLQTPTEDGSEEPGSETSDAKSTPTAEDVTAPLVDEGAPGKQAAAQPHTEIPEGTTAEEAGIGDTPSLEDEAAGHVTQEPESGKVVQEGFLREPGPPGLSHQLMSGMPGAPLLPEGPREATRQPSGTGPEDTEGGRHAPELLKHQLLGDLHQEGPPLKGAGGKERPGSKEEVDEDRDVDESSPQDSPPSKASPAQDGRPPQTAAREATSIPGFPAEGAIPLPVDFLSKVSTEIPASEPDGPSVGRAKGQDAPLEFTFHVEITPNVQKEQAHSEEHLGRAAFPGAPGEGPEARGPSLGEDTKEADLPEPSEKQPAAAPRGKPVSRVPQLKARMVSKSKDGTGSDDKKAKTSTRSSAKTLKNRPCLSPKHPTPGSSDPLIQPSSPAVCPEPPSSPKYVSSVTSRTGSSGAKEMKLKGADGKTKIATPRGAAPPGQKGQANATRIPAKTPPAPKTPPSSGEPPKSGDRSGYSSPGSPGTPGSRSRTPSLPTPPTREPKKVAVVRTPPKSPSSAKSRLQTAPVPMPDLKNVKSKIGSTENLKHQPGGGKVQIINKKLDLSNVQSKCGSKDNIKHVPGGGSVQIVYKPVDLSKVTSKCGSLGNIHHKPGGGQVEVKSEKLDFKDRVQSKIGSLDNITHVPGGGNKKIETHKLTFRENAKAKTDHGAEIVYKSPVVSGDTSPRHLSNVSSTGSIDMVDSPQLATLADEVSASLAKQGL
# Test: qHTS for Inhibitors of Tau Fibril Formation, Thioflavin T Binding; further: nearly all actives have a fitted effect of over 55% in size
# Conditions: recombinant tau K18 P301L (four-repeat tau fragment), heparin-induced fibrillization, ThT fluorescence; series mostly up to 57.4 µM; activity, negative = inhibition: at the top concentration
# Procedure, shortened: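 Aggregation was driven by heparin (20 uM final) acting on recombinant tau […] bearing P301L in 100 mM sodium acetate pH 7; fibrils were detected with Thioflavin T.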
# On the % scale 0 is the no-effect control and ±100 the full control effect; potency means the concentration at half of the fitted maximal effect; tags describe the fitted curve by direction and shape.
Compound,"activity, negative = inhibition",Potency
O=C(NC1CCCCCCC1)c1ccc(CNc2c(N3CCOCC3)c(=O)c2=O)cc1,inactive: -9.47%,–
Cc1nn2cc(-c3ccc(Cl)cc3)cnc2c1Cl,–,"inconclusive: 2 µM [inhibitor, full curve]"
Nc1c(C(=O)Nc2cccc(C(F)(F)F)c2)c2ccccn2c1C(=O)c1ccccc1,inactive: 9.9%,–
O=C1/C(=C/c2ccco2)SC(=S)N1C1CCS(=O)(=O)C1 (stereo not given),–,active: 28.2 µM
CCn1c(C)cc(C=C2C(=O)c3ccccc3C2=O)c1C,–,active: 14.1 µM
O=C(COc1ccccc1[N+](=O)[O-])N/N=C/c1ccc(O)c([N+](=O)[O-])c1,–,"inconclusive: 14.1 µM [inhibitor, partial curve]"
CN1CCN(c2nc(-c3cccnc3)nc3ccccc23)CC1,inactive: 4.36%,–
O=C(CSc1nnc2[nH]c(=O)cc(-c3ccccc3)n12)Nc1cc(C(F)(F)F)ccc1Cl,–,"inconclusive: 11.2 µM [inhibitor, partial curve]"
COc1ccc(-c2cc3nnc(-c4ccccc4)nc3s2)cc1,–,"inconclusive: 0.562 µM [inhibitor, full curve]"
CCn1c(=O)cc(SCC(=O)N2CCN(c3ccccc3F)CC2)c2ccccc21,–,"inconclusive: 5.01 µM [inhibitor, partial curve] and inconclusive: 7.94 µM [inhibitor, partial curve]"
O=C(CCCc1nc2ccccc2s1)N1CCN(c2ccccc2F)CC1,–,"inconclusive: 2.24 µM [inhibitor, full curve]"
COc1cccc(C=N[C@@H](CO)[C@@H](O)c2ccc([N+](=O)[O-])cc2)c1O,–,"inconclusive: 12.6 µM [inhibitor, partial curve, poor fit]"
CCN1CC(CN(C)Cc2nc(-c3ccco3)oc2C)CC1=O (stereo not given),inactive: -10.2%,–
CC(=O)N1CCN(c2ccc(NC(=O)c3ccc(N4CCCC4)c([N+](=O)[O-])c3)cc2Cl)CC1,–,active: 3.98 µM
NN/C(=C\[N+](=O)[O-])Nc1ccccc1,–,"inconclusive: 28.2 µM [inhibitor, partial curve]"
COc1cccc(OC)c1C(=O)Nc1nnc(-c2cccs2)s1,–,"inconclusive: 3.55 µM [inhibitor, partial curve]"
COc1ccc(NC(=O)CCc2c(C)nc3c(-c4ccc(F)cc4)c(C)nn3c2C)c(OC)c1,inactive: -5.04%,–
COc1ccc(-c2nncnn2)cc1,–,"inconclusive: 17.8 µM [inhibitor, partial curve]"
Brc1ccc2nc(SCCOc3ccccc3)[nH]c2c1,–,"inconclusive: 10 µM [inhibitor, partial curve]"
COc1cc2c(cc1OC)C(COc1ccc3c(C)cc(=O)oc3c1)N(C(=O)CC(C)C)CC2 (stereo not given),–,"inconclusive: 44.7 µM [inhibitor, single point]"
CCOc1ccc(OCC(=O)OCn2c(SC)nnc(C)c2=O)cc1,inactive: -9.19%,–
CCOc1ccc(OCC)c(Nc2nc3ccc(Cl)cc3n3cnnc23)c1,inactive: 1.17%,–
CCOC(=O)NC1(NC2CCCCC2)Oc2ccccc2O1,–,"inconclusive: 0.891 µM [inhibitor, partial curve]"
CNC(=O)c1ccc(CSc2nc3ccncc3n2Cc2ccc(C)cc2)cc1,–,"inconclusive: 31.6 µM [activator, partial curve, poor fit]"

Compound,"activity, negative = inhibition",Potency
COc1ccccc1NC(=O)COC(=O)c1ccc(S(=O)(=O)NCc2ccco2)cc1,–,"inconclusive: 10 µM [inhibitor, partial curve]"
Cc1cc(OCC(=O)N[C@@H](Cc2ccccc2)c2nc3ccccc3[nH]2)ccc1Cl,inactive: -9.13%,–
Cc1ccsc1CN1CCc2nc(N3CCN(c4ccccc4F)CC3)ncc2C1,–,"inconclusive: 20 µM [inhibitor, partial curve, poor fit]"
COc1cc(Cl)c(C)cc1NC(=O)c1cnc2c(-c3cccc(C)c3)c(C)nn2c1C,–,"inconclusive: 10 µM [inhibitor, partial curve]"
C/C(=N\Nc1nc2ccccc2[nH]1)c1ccc2c(c1)OCO2,–,"inconclusive: 15.8 µM [inhibitor, partial curve]"
O=C(Nc1ccc(SC(F)F)cc1)c1ccc2nccnc2c1,–,"inconclusive: 15.8 µM [inhibitor, partial curve]"
Cc1ccc(-c2cc(C(=O)NCCc3ccc(S(N)(=O)=O)cc3)c3ccccc3n2)cc1,–,"inconclusive: 0.447 µM [activator, full curve, poor fit]"
Cc1c(O)ccc(/C(Cc2ccc3ccccc3n2)=N\O)c1O,inactive: -11.6%,–
CCCCCn1ccc(=N)cc1,inactive: 4.25%,–
COCCCNC(=O)C1CCCN(c2nn3cc(-c4ccc(C)cc4)nc3s2)C1 (stereo not given),–,"inconclusive: 28.2 µM [inhibitor, partial curve]"
O=C(CSc1nnc(-c2cccs2)n1-c1ccccc1)N1CCN(C(=O)c2ccco2)CC1,–,"inconclusive: 31.6 µM [inhibitor, partial curve, poor fit]"
CCOc1ccc(-c2noc(CSc3nnc(Cc4ccccc4)n3-c3cccc(C)c3)n2)cc1,–,"inconclusive: 0.141 µM [inhibitor, full curve]"
O=c1c(-c2c(O)cc(O)c3c(=O)cc(-c4ccc(O)cc4)oc23)c(-c2ccc(O)cc2)oc2cc(O)cc(O)c12,–,active: 15.8 µM
Cc1cccc(/C=C2\CCC(=C3SCCCS3)C2=O)c1,–,active: 1.41 µM
CC1CN(c2ccc([N+](=O)[O-])c(NCCOc3ccccc3)c2)CCN1 (stereo not given),–,"inconclusive: 15.8 µM [inhibitor, partial curve]"
C#CCOCCOCCOCCNc1nc(N2CCN(C(=O)[C@H](CCC(=O)O)n3cc(C(N)CC(C)C)nn3)CC2)nc(N2CCN(C(=O)[C@H](Cc3ccc(O)cc3)n3cc(C(N)CC(C)C)nn3)CC2)n1 (stereo not given in full),inactive: -6.38%,–
CCOC(=O)c1cnc2ccc(C)cc2c1Nc1ccc(N2CCOCC2)cc1,–,active: 28.2 µM
CCOC(=O)C1=C(N)n2c(s/c(=C/c3ccco3)c2=O)=C(C(=O)OC)C1c1ccco1 (stereo not given),–,active: 14.1 µM
CC(=O)N(CCC(Cc1ccccc1)c1ccco1)Cc1ccco1 (stereo not given),–,"inconclusive: 14.1 µM [inhibitor, partial curve]"
Cc1ccc(Nc2nc(C3CC3)cs2)cc1,–,"inconclusive: 17.8 µM [inhibitor, partial curve]"
COCc1cc(C)nc2sc(C(=O)Nc3cc(C)ccc3F)c(N)c12,inactive: -17%,–
O=C(c1ccncc1)N1CCN(C(=O)c2ccco2)CC1,inactive: -4.23%,–
BrC(=C\c1ccccc1)/C=N/N1CCN(c2ccccn2)CC1,–,"inconclusive: 14.1 µM [inhibitor, partial curve, poor fit]"
Cc1csc(=NC(=O)c2ccccc2)n1Cc1ccco1,inactive: -12.2%,–

Compound,"activity, negative = inhibition",Potency
Cc1cc(-c2nc3ccccc3o2)c2ccccc2n1,–,"inconclusive: 39.8 µM [inhibitor, partial curve]"
O=C(NCCc1ccccc1)c1ccc(NCC2CCCO2)c([N+](=O)[O-])c1 (stereo not given),–,active: 15.8 µM
O=C(CC(=O)N1CCN(c2ccccn2)CC1)Nc1ccc2nc3n(c(=O)c2c1)CCCCC3,–,"inconclusive: 11.2 µM [inhibitor, partial curve]"
Nc1ncc2c(n1)CC(c1ccco1)CC2=O (stereo not given),–,"inconclusive: 39.8 µM [inhibitor, single point]"
C/C(=N\NC(=O)c1ccc(N(C)C)cc1)c1ccc(C)c(C)c1,–,"inconclusive: 0.891 µM [inhibitor, full curve]"
Cc1ccc(N=C2S/C(=C\c3cn(CC(=O)O)c4ccccc34)C(=O)N2C)cc1,–,"inconclusive: 28.2 µM [inhibitor, partial curve]"
COc1ccc(/C(N)=N/OC(=O)CSc2ccccc2)cc1,–,"inconclusive: 35.5 µM [inhibitor, partial curve]"
CCOc1ccccc1C(=O)N/N=C/c1cccc2cccnc12,–,"inconclusive: 12.6 µM [inhibitor, partial curve]"
CCOC(=O)c1oc2cccc(O)c2c1C,–,"inconclusive: 28.2 µM [inhibitor, partial curve]"
COc1ccc(-c2cc(=O)c3cc(O)ccc3o2)cc1,–,"inconclusive: 14.1 µM [inhibitor, single point]"
CCCN(CCC)CCNC(=O)C1CCN(c2nc3ccc(CC)cc3s2)CC1,–,"inconclusive: 39.8 µM [inhibitor, single point]"
O=C(Oc1ccc(=O)n(-c2ccccc2)n1)c1ccc(Cl)cc1,–,"inconclusive: 20 µM [inhibitor, partial curve]"
COc1ccccc1NC(=O)NCC(c1ccco1)N1CCCCC1 (stereo not given),inactive: 3.01%,–
S=c1nc[nH]c2c1sc1nc(N3CCOCC3)c3c(c12)CCCC3,–,"inconclusive: 31.6 µM [inhibitor, single point]"
O=C(CSc1nc2c(c(=O)[nH]1)CN(Cc1ccc3c(c1)OCO3)CC2)Nc1ccc(F)c(F)c1,–,"inconclusive: 17.8 µM [inhibitor, partial curve]"
CCOC(=O)c1cnc2ccc(Cl)cc2c1Nc1ccc(N2CCOCC2)cc1,–,active: 15.8 µM
O=C(c1ccccc1)c1ccc(CN2C(=O)c3ccccc3C2=O)o1,inactive: 4.55%,–
COCCCNC(=O)Nc1ccc(Br)cc1Cl,inactive: 1.98%,–
Cc1oc(-c2ccccc2F)nc1CSc1nnc(C)n2c1cc1occc12,inactive: -11.3%,–
COc1ccc(NCc2nnc(SCC(=O)Nc3cc(C)cc(C)c3)o2)cc1,–,"inconclusive: 28.2 µM [inhibitor, partial curve]"
CNC(=O)c1c(NC(NC(=O)c2ccco2)C(=O)c2ccc(Cl)cc2)sc2c1CCCC2 (stereo not given),–,active: 25.1 µM
CC(=O)Oc1ccc(S(=O)(=O)c2ccc(OC(C)=O)cc2)cc1,–,"inconclusive: 39.8 µM [inhibitor, single point]"

# Source: PubChem BioAssay AID1460 (National Center for Advancing Translational Sciences (NCATS), 2008)
